# From the supplement of paper PMC8728848
# The other results are listed elsewhere or left out.
# Assays:
# Assay in all cases: glycan array binding signal (z-score within array); higher = stronger binding
# Conditions in all cases: glycan notation: IUPAC condensed, linker removed
# [1] = target: Fuc(a1-3)[Gal(b1-4)]GlcNAc
# Outline: (§1)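 Columns mapping to the same glycan were averaged after glycan names were converted to IUPAC-condensed notation. The data come from 3228 arrays in the Consortium for Functional Glycomics database, limited to those with an available protein sequence. Binding is reported as a within-array Z-score averaged across arrays of one protein sequence and across linkers.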
# [2] = target: Fuc(a1-3)[Gal(b1-4)]GlcNAc(b1-4)Gal(b1-4)[Fuc(a1-3)]GlcNAc
# Outline: as §1
# [3] = target: Fuc(a1-3)[Gal(b1-4)]GlcNAc(b1-4)Gal(b1-4)[Fuc(a1-3)]GlcNAc(b1-4)Gal(b1-4)[Fuc(a1-3)]GlcNAc
# Outline: as §1
# [4] = target: Fuc(a1-3)[Gal3S(b1-4)]GlcNAc
# Outline: as §1
# [5] = target: Fuc(a1-3)[GalNAc(b1-4)]GlcNAc
# Outline: as §1
# [6] = target: Fuc(a1-4)GlcNAc
# Outline: as §1
# [7] = target: Fuc(b1-3)GlcNAc
# Outline: as §1
# [8] = target: Gal(a1-2)Gal
# Outline: as §1
# [9] = target: Gal(a1-3)Gal
# Outline: as §1
# [10] = target: Gal(a1-3)Gal(b1-3)GlcNAc
# Outline: as §1
# [11] = target: Gal(a1-3)Gal(b1-4)Glc
# Outline: as §1
# [12] = target: Gal(a1-3)Gal(b1-4)GlcNAc
# Outline: as §1
# [13] = target: Gal(a1-3)Gal(b1-4)[Fuc(a1-3)]GlcNAc
# Outline: as §1
# [14] = target: Gal(a1-3)GalNAc
# Outline: as §1
# [15] = target: Gal(a1-3)[Gal(a1-4)]Gal(b1-4)GlcNAc
# Outline: as §1
# [16] = target: Gal(a1-4)Gal(b1-4)Glc
# Outline: as §1
# [17] = target: Gal(a1-4)Gal(b1-4)GlcNAc
# Outline: as §1
# [18] = target: Gal(a1-4)GlcNAc
# Outline: as §1
# [19] = target: Gal(a1-6)Glc
# Outline: as §1
# [20] = target: Gal(b1-2)Gal
# Outline: as §1
# [21] = target: Gal(b1-3)Gal
# Outline: as §1
# [22] = target: Gal(b1-3)GalNAc
# Outline: as §1
# [23] = target: Gal(b1-3)GalNAc(b1-3)Gal(a1-4)Gal(b1-4)Glc
# Outline: as §1
# [24] = target: Gal(b1-3)GalNAc(b1-4)Gal(b1-4)Glc
# Outline: as §1
# [25] = target: Gal(b1-3)GalNAc(b1-4)[Neu5Ac(a2-3)]Gal(b1-4)Glc
# Outline: as §1
# [26] = target: Gal(b1-3)GlcNAc
# Outline: as §1
# [27] = target: Gal(b1-3)GlcNAc(b1-3)Gal(b1-4)Glc
# Outline: as §1
# [28] = target: Gal(b1-3)GlcNAc(b1-3)Gal(b1-4)GlcNAc
# Outline: as §1
# [29] = target: Gal(b1-3)[Fuc(a1-4)]GlcNAc
# Outline: as §1
# [30] = target: Gal(b1-3)[Fuc(a1-4)]GlcNAc(b1-3)Gal(b1-4)GlcNAc
# Outline: as §1
# [31] = target: Gal(b1-3)[Fuc(a1-4)]GlcNAc(b1-3)Gal(b1-4)[Fuc(a1-3)]GlcNAc
# Outline: as §1
# [32] = target: Gal(b1-3)[GlcNAc(b1-6)]GalNAc
# Outline: as §1
# [33] = target: Gal(b1-3)[Neu5Ac(a2-6)]GalNAc
# Outline: as §1
# [34] = target: Gal(b1-3)[Neu5Ac(a2-6)]GlcNAc(b1-6)Gal(b1-4)Glc
# Outline: as §1
# [35] = target: Gal(b1-3)[Neu5Ac(b2-6)]GalNAc
# Outline: as §1
# [36] = target: Gal(b1-4)GalNAc(a1-3)[Fuc(a1-2)]Gal(b1-4)GlcNAc
# Outline: as §1
# [37] = target: Gal(b1-4)GalNAc(b1-3)[Fuc(a1-2)]Gal(b1-4)GlcNAc
# Outline: as §1
# [38] = target: Gal(b1-4)Glc
# Outline: as §1
# [39] = target: Gal(b1-4)Glc6S
# Outline: as §1
# [40] = target: Gal(b1-4)GlcNAc
# Outline: as §1
# [41] = target: Gal(b1-4)GlcNAc(b1-2)Man(a1-3)[Gal(b1-4)GlcNAc(b1-2)Man(a1-6)]Man(b1-4)GlcNAc(b1-4)GlcNAc
# Outline: as §1
# [42] = target: Gal(b1-4)GlcNAc(b1-3)Gal(b1-4)Glc
# Outline: as §1
# [43] = target: Gal(b1-4)GlcNAc(b1-3)Gal(b1-4)GlcNAc
# Outline: as §1
# [44] = target: Gal(b1-4)GlcNAc(b1-3)Gal(b1-4)GlcNAc(b1-3)Gal(b1-4)GlcNAc
# Outline: as §1
# [45] = target: Gal(b1-4)GlcNAc(b1-3)Gal(b1-4)[Fuc(a1-3)]GlcNAc(b1-3)Gal(b1-4)[Fuc(a1-3)]GlcNAc
# Outline: as §1
# [46] = target: Gal(b1-4)GlcNAc(b1-3)GalNAc
# Outline: as §1
# [47] = target: Gal(b1-4)GlcNAc(b1-3)[Gal(b1-4)GlcNAc(b1-6)]GalNAc
# Outline: as §1
# [48] = target: Gal(b1-4)GlcNAc(b1-6)Gal(b1-4)GlcNAc(b1-6)GalNAc
# Outline: as §1
# [49] = target: Gal(b1-4)GlcNAc(b1-6)GalNAc
# Outline: as §1
# [50] = target: Gal(b1-4)GlcNAc(b1-6)[Gal(b1-3)]GalNAc
# Outline: as §1
# [51] = target: Gal3S(b1-3)GalNAc
# Outline: as §1
# [52] = target: Gal3S(b1-3)GlcNAc
# Outline: as §1
# [53] = target: Gal3S(b1-3)[Fuc(a1-4)]GlcNAc
# Outline: as §1
# [54] = target: Gal3S(b1-4)Glc
# Outline: as §1
# [55] = target: Gal3S(b1-4)Glc6S
# Outline: as §1
# [56] = target: Gal3S(b1-4)GlcNAc
# Outline: as §1
# [57] = target: Gal3S(b1-4)GlcNAc6S
# Outline: as §1
# [58] = target: Gal3S6S(b1-4)GlcNAc
# Outline: as §1
# [59] = target: Gal3S6S(b1-4)GlcNAc6S
# Outline: as §1
# [60] = target: Gal4S(b1-4)GlcNAc
# Outline: as §1
# [61] = target: Gal4S6S(b1-4)GlcNAc
# Outline: as §1
# [62] = target: Gal6S(b1-4)Glc
# Outline: as §1
# [63] = target: Gal6S(b1-4)Glc6S
# Outline: as §1
# [64] = target: Gal6S(b1-4)GlcNAc
# Outline: as §1
# [65] = target: GalNAc(a1-3)Gal
# Outline: as §1
# [66] = target: GalNAc(a1-3)GalNAc
# Outline: as §1
# [67] = target: GalNAc(b1-3)Gal(a1-4)Gal(b1-4)GlcNAc
# Outline: as §1
# [68] = target: GalNAc(b1-3)GalNAc
# Outline: as §1
# [69] = target: GalNAc(b1-4)GlcNAc
# Outline: as §1
# [70] = target: Glc(a1-4)Glc
# Outline: as §1
# [71] = target: Glc(a1-6)Glc(a1-6)Glc
# Outline: as §1
# [72] = target: Glc(b1-4)Glc
# Outline: as §1
# [73] = target: Glc(b1-6)Glc
# Outline: as §1
# [74] = target: GlcA(b1-3)Gal
# Outline: as §1
# [75] = target: GlcA(b1-6)Gal
# Outline: as §1
binder,measurement,setting,value
FaeGac (Escherichia coli) (protein) WMTGDFNGSVDIGGSITADDYRQKWEWKVGTGLNGFGNVLNDLTNGGTKLTITVTGNKPILLGRTKEAFATPVTGGVDGIPHIAFTDYEGASVVLRKPDGETNKNGLAYFVLPMKNAGGTKVGSVKVNASYAGVLGRGGVTSADGELLSLFADGLSSIFYGGLPRGSELSAGSAAAARTKLFGSLSRDDILGQIQRVNANVTSLVDVAGSYRENMEYTDGNVVSAAYALGIANGQTIEATFNQAVTTSTQWSAPLNVAITYY,glycan array binding signal (z-score),[1],-0.598
same,glycan array binding signal (z-score),[2],0.664
same,glycan array binding signal (z-score),[3],-0.479
same,glycan array binding signal (z-score),[4],-0.821
same,glycan array binding signal (z-score),[5],1.98
same,glycan array binding signal (z-score),[6],1.32
same,glycan array binding signal (z-score),[7],-0.413
same,glycan array binding signal (z-score),[8],-0.535
same,glycan array binding signal (z-score),[9],-0.887
same,glycan array binding signal (z-score),[10],-0.126
same,glycan array binding signal (z-score),[11],-0.126
same,glycan array binding signal (z-score),[12],0.712
same,glycan array binding signal (z-score),[13],-0.168
same,glycan array binding signal (z-score),[14],0.679
same,glycan array binding signal (z-score),[15],-0.837
same,glycan array binding signal (z-score),[16],0.242
same,glycan array binding signal (z-score),[17],0.008
same,glycan array binding signal (z-score),[18],-0.505
same,glycan array binding signal (z-score),[19],0.835
same,glycan array binding signal (z-score),[20],-0.3
same,glycan array binding signal (z-score),[21],-0.009
same,glycan array binding signal (z-score),[22],0.248
same,glycan array binding signal (z-score),[23],-0.2
same,glycan array binding signal (z-score),[24],-0.238
same,glycan array binding signal (z-score),[25],-0.402
same,glycan array binding signal (z-score),[26],-0.584
same,glycan array binding signal (z-score),[27],0.12
same,glycan array binding signal (z-score),[28],-0.916
same,glycan array binding signal (z-score),[29],-0.535
same,glycan array binding signal (z-score),[30],-0.5
same,glycan array binding signal (z-score),[31],-0.529
same,glycan array binding signal (z-score),[32],0.374
same,glycan array binding signal (z-score),[33],0.901
same,glycan array binding signal (z-score),[34],-0.855
same,glycan array binding signal (z-score),[35],0.148
same,glycan array binding signal (z-score),[36],-0.444
same,glycan array binding signal (z-score),[37],-0.721
same,glycan array binding signal (z-score),[38],-0.314
same,glycan array binding signal (z-score),[39],0.51
same,glycan array binding signal (z-score),[40],-0.831
same,glycan array binding signal (z-score),[41],-0.593
same,glycan array binding signal (z-score),[42],0.509
same,glycan array binding signal (z-score),[43],-0.084
same,glycan array binding signal (z-score),[44],-0.738
same,glycan array binding signal (z-score),[45],0.628
same,glycan array binding signal (z-score),[46],0.035
same,glycan array binding signal (z-score),[47],-0.533
same,glycan array binding signal (z-score),[48],0.135
same,glycan array binding signal (z-score),[49],-0.547
same,glycan array binding signal (z-score),[50],1.21
same,glycan array binding signal (z-score),[51],-0.354
same,glycan array binding signal (z-score),[52],-0.299
same,glycan array binding signal (z-score),[53],-0.531
same,glycan array binding signal (z-score),[54],-0.656
same,glycan array binding signal (z-score),[55],-0.177
same,glycan array binding signal (z-score),[56],0.555
same,glycan array binding signal (z-score),[57],2.17
same,glycan array binding signal (z-score),[58],-0.035
same,glycan array binding signal (z-score),[59],1.17
same,glycan array binding signal (z-score),[60],0.313
same,glycan array binding signal (z-score),[61],1.04
same,glycan array binding signal (z-score),[62],-0.652
same,glycan array binding signal (z-score),[63],1.8
same,glycan array binding signal (z-score),[64],-0.534
same,glycan array binding signal (z-score),[65],1.5
same,glycan array binding signal (z-score),[66],0.689
same,glycan array binding signal (z-score),[67],-0.817
same,glycan array binding signal (z-score),[68],1.2
same,glycan array binding signal (z-score),[69],-0.387
same,glycan array binding signal (z-score),[70],5.96
same,glycan array binding signal (z-score),[71],6.71
same,glycan array binding signal (z-score),[72],4.43
same,glycan array binding signal (z-score),[73],-0.21
same,glycan array binding signal (z-score),[74],-0.705
same,glycan array binding signal (z-score),[75],0.602
